From PubChem BioAssay (NCATS)
Inconclusive means that the source gave no clear call. Such entries were picked first, then a sample of the others. Potencies of inconclusive entries are doubtful fits and often do not repeat. The source made the active and inactive calls. Calls follow the shape of the dose curve; as a rule, active = well fitted curve in the direction sought with a large enough effect; inconclusive = small, poorly fitted or top-dose-only effect, or another doubt; inactive = no such curve, though single readings can be large; an effect the other way counts as inactive or inconclusive.

Key:
[1] = molecular target: Rap guanine nucleotide exchange factor 3 (Homo sapiens) (UniProt O95398); test: Confirmatory qHTS for antagonist of cAMP-regulated guanine nucleotide exchange factor 3 (EPAC1) (AID 1645880); settings: EPAC1 Rap1B-BODIPY-GDP exchange, fluorescence; activity, negative = inhibition: at 115 µM (top of the series); also: nearly all actives have a fitted effect of over 55% in size;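 as to activity, negative = inhibition: plate controls were DMSO only for no effect and full effect of the ATA control for full effect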
Chain of UniProt O95398 (O95398 whole entry, looked up): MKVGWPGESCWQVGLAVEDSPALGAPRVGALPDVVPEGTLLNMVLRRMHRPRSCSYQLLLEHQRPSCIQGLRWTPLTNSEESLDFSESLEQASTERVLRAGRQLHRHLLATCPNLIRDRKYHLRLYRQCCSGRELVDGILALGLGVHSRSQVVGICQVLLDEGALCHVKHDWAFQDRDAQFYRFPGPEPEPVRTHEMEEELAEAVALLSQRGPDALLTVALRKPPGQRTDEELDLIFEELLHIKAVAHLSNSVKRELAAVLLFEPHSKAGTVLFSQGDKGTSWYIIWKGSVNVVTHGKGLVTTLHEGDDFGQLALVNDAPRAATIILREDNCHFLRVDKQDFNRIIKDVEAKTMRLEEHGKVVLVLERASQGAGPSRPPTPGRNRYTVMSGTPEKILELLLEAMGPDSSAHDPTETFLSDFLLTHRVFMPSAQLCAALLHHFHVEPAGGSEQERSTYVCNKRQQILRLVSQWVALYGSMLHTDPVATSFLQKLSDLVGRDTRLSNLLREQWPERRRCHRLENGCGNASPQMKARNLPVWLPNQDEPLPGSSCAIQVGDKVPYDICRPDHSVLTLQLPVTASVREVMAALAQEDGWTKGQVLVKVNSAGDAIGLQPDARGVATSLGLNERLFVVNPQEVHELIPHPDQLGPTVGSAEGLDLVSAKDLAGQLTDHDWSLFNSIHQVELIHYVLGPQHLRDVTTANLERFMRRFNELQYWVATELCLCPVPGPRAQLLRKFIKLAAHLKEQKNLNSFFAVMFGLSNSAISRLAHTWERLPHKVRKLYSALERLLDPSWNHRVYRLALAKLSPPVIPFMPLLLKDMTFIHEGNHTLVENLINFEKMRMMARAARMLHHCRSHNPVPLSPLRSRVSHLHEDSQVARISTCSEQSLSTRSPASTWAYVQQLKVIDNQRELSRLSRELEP
Summary of the method: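 Released BODIPY-GDP fluoresces less than Rap1-bound BODIPY-GDP; the signal is followed at 480/540 nm at 5-min intervals over 30 min, after 5 min at room temperature. Reactions contain 100 nM EPAC1, 250 nM RAP1B-BODIPY-GDP and 50 uM GDP; results are normalized to ATA and DMSO.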

[2] = molecular target: Rap guanine nucleotide exchange factor 3 (Homo sapiens) (UniProt O95398); test: Counterscreen qHTS for agonist of cAMP-regulated guanine nucleotide exchange factor 3 (EPAC1) (AID 1645889); settings: EPAC1 Rap1B-BODIPY-GDP exchange, fluorescence; activation: at 154 µM (top of the series) unless noted; also: nearly all actives have a fitted effect of over 40% in size; as to activation: % of control where 0% means no effect
Summary of the method: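 Rap1B-BODIPY-GDP 250 nM + GDP 50 uM; cpds 7-pt, final 9.74 nM–152 uM (activator mode) or from 7.32 nM upwards (inhibitor mode); RT; FI 480/540 nm at 5 and 30 min, then ± cAMP, reread.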
Potency is read from the fitted curve at half-maximal effect; tags tell the direction and shape of the fitted curve.

SMILES | Potency [1] | activation [2] | Potency [2]
CC(=O)c1sc2nc(CSc3nnnn3-c3ccccc3)[nH]c(=O)c2c1C | inconclusive: 15.8 µM [inhibitor, full curve] | inactive: 8.36% [at 30.8 µM] | 
COC(=O)c1[nH]c2cc(C)ccc2c1NC(=O)CN1CCCc2ccccc21 | inactive |  | inconclusive: 79.4 µM [activator, single point]
COc1cccc2sc(N3CCN(c4nc5ccccc5s4)CC3)nc12 | inactive | inconclusive: 30.6% [activator] [at 30.8 µM] | 
CCSc1nnc(NC(=O)C2CCN(S(=O)(=O)c3ccccc3C(F)(F)F)CC2)s1 | inactive | inconclusive: 26.9% [activator] | 
CC1=NN(c2ccc(Br)cc2)C(=O)/C1=C/c1cccs1 | inconclusive: 11.2 µM [inhibitor, full curve] |  | active: 14.1 µM
CCCCC[C@@H]1C=C(C(=O)O)[C@H](c2ccc(Cl)c(Cl)c2)N1S(=O)(=O)c1ccc(C)cc1 | active: 30.1 µM |  | inactive
CC(C)CC(NS(=O)(=O)OCC(Cl)(Cl)Cl)c1ccccc1 (centres undefined) | inconclusive: 56.2 µM [inhibitor, partial curve, poor fit] |  | inconclusive: 22.4 µM [activator, partial curve, poor fit]
COc1ccc(Oc2cn[nH]c2-c2ccc(OC)cc2O)cc1 | inconclusive: 44.7 µM [inhibitor, partial curve, poor fit] |  | inconclusive: 7.94 µM [activator, partial curve, poor fit]
Cc1ccc(N(Cc2cccs2)C(=O)c2ccco2)cc1 | inconclusive: 84.9 µM [inhibitor, partial curve, poor fit] |  | inactive
CC(NS(=O)(=O)OCC(Cl)(Cl)Cl)c1ccc(Br)cc1 (centres undefined) | inconclusive: 42.6 µM [inhibitor, partial curve, poor fit] | inconclusive: 37.7% [activator] | 
Cc1ccc(C)c(S(=O)(=O)N2CCN(C(=O)/C=C/c3ccco3)CC2)c1 | inconclusive: 75.7 µM [inhibitor, partial curve] |  | inactive
Cc1cccc(NC(=O)COC(=O)c2c(-c3ccccc3)noc2C)c1 | inconclusive: 39.8 µM [inhibitor, partial curve, poor fit] | inactive: 24.2% [at 30.8 µM] | 
Cc1ccc2nc3sc(C(=O)Nc4c(C)[nH]c(=O)[nH]c4=O)c(N)c3cc2c1 | inconclusive: 17.8 µM [inhibitor, partial curve, poor fit] | inactive: 5.21% [at 30.8 µM] | 
O=S(=O)(NCCC1=CCCCC1)c1ccc(OC(F)(F)F)cc1 | inconclusive: 35.5 µM [inhibitor, partial curve] | inactive: 3.2% [at 30.8 µM] | 
COc1cnc(-c2ccccc2)nc1Sc1ccccc1 | inactive |  | inconclusive: 70.8 µM [activator, partial curve]
Cc1ccccc1C(=O)Nc1cccc(C(=O)N/N=C/c2cc(Cl)cc([N+](=O)[O-])c2O)c1 | inconclusive: 42.6 µM [inhibitor, partial curve] |  | inconclusive: 11.2 µM [activator, partial curve, poor fit]
Cc1sc(NC(=O)C2=COCCO2)nc1-c1ccc(Cl)cc1 | inactive | inconclusive: 21.7% [activator] | 
COc1cccc(C2CC(c3cccs3)=NN2C(=O)c2ccco2)c1O (centres undefined) | inconclusive: 63.1 µM [inhibitor, partial curve, poor fit] | inactive: 8.43% [at 30.8 µM] | 
COC(=O)c1ccc2nc(-c3cccc(Cl)c3)c(Cc3ccccc3)n2c1 | inconclusive: 35.5 µM [inhibitor, partial curve, poor fit] | inactive: 15.5% [at 30.8 µM] | 
C=CCOC(=O)C1=C(C)NC(C)=C(C(=O)OCC=C)C1c1ccco1 | inconclusive: 35.5 µM [inhibitor, partial curve, poor fit] |  | inconclusive: 0.282 µM [activator, partial curve]
COc1cc(O)cc(O)c1C(=O)/C=C/c1ccccc1 | active: 67.5 µM |  | inactive
O=C(COc1ccccc1-c1ccccc1)NCc1ccco1 | inconclusive: 26.9 µM [inhibitor, partial curve, poor fit] |  | inconclusive: 44.7 µM [activator, single point]
